Reference: PubChem BioAssay AID488969 (Vanderbilt High Throughput Screening Facility, 2010)
The full ranking holds about 110,000 compounds; the median of “z-score” is about -0.1, and the highest 2% start at about 2. This is one part of the list.

Molecular target: Metabotropic glutamate receptor 8 (Rattus norvegicus) (UniProt P70579)
Assay: mGluR8 Gi/Go-coupled signaling modulation – cell-based, rat, thallium flux, HTS, primary screen (AID 488969)
Conditions: HEK293 rat mGluR8, GIRK (G protein-gated inwardly rectifying potassium channel) thallium flux, FluoZin2; at 10 µM; stronger effect = higher value; submaximal glutamate (EC20) added with thallium

Sequence of UniProt P70579 (P70579 whole entry, looked up): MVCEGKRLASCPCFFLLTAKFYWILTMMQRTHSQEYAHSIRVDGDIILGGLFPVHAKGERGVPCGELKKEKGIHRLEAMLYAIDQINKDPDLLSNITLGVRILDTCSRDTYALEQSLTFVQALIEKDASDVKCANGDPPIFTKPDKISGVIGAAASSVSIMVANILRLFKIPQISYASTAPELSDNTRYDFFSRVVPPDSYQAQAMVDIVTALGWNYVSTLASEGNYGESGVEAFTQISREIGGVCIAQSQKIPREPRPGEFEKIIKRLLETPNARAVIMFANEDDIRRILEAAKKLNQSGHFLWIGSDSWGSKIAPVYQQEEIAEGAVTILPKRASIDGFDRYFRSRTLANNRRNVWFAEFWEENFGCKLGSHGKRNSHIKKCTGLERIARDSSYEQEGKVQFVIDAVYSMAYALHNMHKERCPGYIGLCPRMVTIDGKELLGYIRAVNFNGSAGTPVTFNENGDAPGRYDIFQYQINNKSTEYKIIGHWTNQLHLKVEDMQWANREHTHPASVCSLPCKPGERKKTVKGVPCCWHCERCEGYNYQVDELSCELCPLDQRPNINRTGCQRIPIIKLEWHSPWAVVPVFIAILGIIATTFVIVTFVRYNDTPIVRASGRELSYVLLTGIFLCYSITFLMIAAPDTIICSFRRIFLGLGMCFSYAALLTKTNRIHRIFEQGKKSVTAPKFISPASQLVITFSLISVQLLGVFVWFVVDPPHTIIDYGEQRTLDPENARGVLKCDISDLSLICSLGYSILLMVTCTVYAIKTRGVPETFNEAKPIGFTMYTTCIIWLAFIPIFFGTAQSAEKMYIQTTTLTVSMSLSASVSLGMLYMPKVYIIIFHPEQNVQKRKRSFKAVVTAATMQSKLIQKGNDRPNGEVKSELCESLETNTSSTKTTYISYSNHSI

| SMILES | z-score |
| --- | --- |
| CC(NC(=O)c1ccc2c(c1)OCO2)C(c1cccs1)N1CCOCC1 (stereo unspecified) | -0.0844 |
| O=C(Nc1cccnc1)c1ccccc1O | -0.251 |
| O=C(CCN1CCN(C/C=C/c2ccccc2)CC1)Nc1ccc(Cl)cc1 | 0.239 |
| COc1ccc(OCC(=O)N2CCN(C(=O)c3cccc(F)c3)CC2)cc1 | -0.205 |
| Cc1cc(Br)c2c(c1)=C(c1sc(N3CCCCCC3)nc1O)C(=O)N=2 | 0.07 |
| Cc1cc[n+](-c2[nH]c(=O)sc2/C=N/NC([S-])=Nc2ccccc2)cc1 | 0.536 |
| CC(=O)Nc1c(C)nn(-c2ccc(C)c(C)c2)c1C | -0.119 |
| c1ccc(C2CC(c3ccccc3)n3c(nc4ccccc43)N2)cc1 (stereo unspecified) | -2.1 |
| CSc1cccc(NC(=O)c2ccccc2N(C)S(C)(=O)=O)c1 | -0.197 |
| O=C(NNC(=O)c1ccc([N+](=O)[O-])cc1Cl)c1ccncc1 | -0.103 |
| CCOc1ccc2c(c1)n(CO)c(=S)n2CO | 0.0706 |
| O=C(Nc1nnc(CCc2ccccc2)s1)C1CCCO1 (stereo unspecified) | -0.359 |
| O=c1c2ccccc2sn1-c1ccc(S(=O)(=O)N2CCCCC2)cc1 | -0.181 |
| Cc1ccc(-c2nnn(CC(=O)NCC3CC3)n2)o1 | -0.0955 |
| Cc1ccccc1CS(=O)(=O)Cc1ccc(C(=O)NCc2ccco2)o1 | 1.15 |
| COCCN(CCOC)C(=O)CC(=O)N(CCOC)CCOC | 0.0459 |

| SMILES | z-score |
| --- | --- |
| CCOC(=O)Cc1cc(=O)n2[nH]c(C)c(C#N)c2n1 | -0.0107 |
| O=C1c2ccccc2C(=O)N1C/C=C/CN1C(=O)c2ccccc2C1=O | 0.0454 |
| Cc1c(CN(C)CCc2ccccc2)c(=O)n(-c2ccccc2)n1C | -0.04 |
| Cc1ccc(-c2cc(C(=O)NCc3cnn(C)c3)c3cc(Br)ccc3n2)cc1 | -0.27 |
| O=C(Nc1ccc2c(c1)ncn2-c1ccccc1)c1ccco1 | -0.0773 |
| COc1ccc(NC(=S)Nc2ccc3nccnc3c2)cc1 | -0.171 |
| Cc1nc2[nH]c(=O)c3c(n2n1)NC1=C(C(=O)CC(C)(C)C1)C3c1ccc(F)cc1 (stereo unspecified) | -2.1 |
| Cc1ccc(NC(=O)CSc2ccccc2NC(=O)c2cccc(Cl)c2)cc1Cl | 0.0757 |
| CCOCC(=O)Nc1sc2c(c1C(=O)OCC)CCCC2 | -0.324 |
| O=C(COC(=O)c1ccc(S(=O)(=O)NCc2ccco2)cc1)Nc1ccc(OC(F)F)cc1 | 0.342 |
| Cc1ccc(S(=O)(=O)N/N=C/c2cc(Br)c(C)o2)cc1 | -0.0995 |
| O=C1CC(c2ccccc2)CC(O)=C1C=NCc1ccccc1Cl (stereo unspecified) | -0.251 |
| CCCCN(C(=O)c1ccco1)c1nnc(-c2cc(OC)c(OC)c(OC)c2)s1 | -0.288 |
| O=C(O)CCCc1nc(-c2ccccc2)no1 | -0.525 |
| CCS(=O)(=O)N1CCC(C(=O)N2CCOCC2)CC1 | 0.318 |
